Scores with a large standard error are left out. Not listed are two conditions whose scores span a narrow range. In variant names, del marks residues removed and ins residues inserted between the two positions. For part of these data: The data file names ogerin without a concentration.

First the molecules themselves.
B1: GPR68, Q15743 (parent)
chain: MGNITADNSSMSCTIDHTIHQTLAPVVYVTVLVVGFPANCLSLYFGYLQIKARNELGVYLCNLTVADLFYICSLPFWLQYVLQHDNWSHGDLSCQVCGILLYENIYISVGFLCCISVDRYLAVAHPFRFHQFRTLKAAVGVSVVIWAKELLTSIYFLMHEEVIEDENQHRVCFEHYPIQAWQRAINYYRFLVGFLFPICLLLASYQGILRAVRRSHGTQKSRKDQIQRLVLSTVVIFLACFLPYHVLLLVRSVWEASCDFAKGVFNAYHFSLLLTSFNCVADPVLYCFVSETTHRDLARLRGACLAFLTCSRTGRAREAYPLGAPEASGKSGAQGEEPELLTKLHPAFQTPNSPGSGGFPTGRLA

Data set [1] covers variants of B1. In words: cAMP reporter score (Enrich2 score, wild type = 0); higher = more signal; HEK293T, FACS bins.
In data set [2] the parent is B1. The data set is described as follows: surface expression score (Enrich2 score, wild type = 0); higher = more signal; HEK293T, FACS bins.

Regarding N352_S353insGSG, the cAMP reporter score was found to be 0.272 in data set [1] (pH 5.5); 0.33 in data set [1] (pH 6); 0.516 in data set [1] (pH 6, modulator: ogerin); 0.907 in data set [1] (pH 6.5, modulator: ogerin). Besides, the surface expression score in data set [2] was 0.371.

Turning to G355A, the cAMP reporter score in data set [1] (pH 5.5) is 0.991; in data set [1] (pH 6), -0.835; in data set [1] (pH 6, modulator: ogerin), 0.923; in data set [1] (pH 6.5, modulator: ogerin) it was 0.827. In data set [2], the surface expression score was 0.613.

As to G355D, the cAMP reporter score was 0.594 in data set [1] (pH 5.5); 0.744 in data set [1] (pH 6); 0.262 in data set [1] (pH 6, modulator: ogerin); 1.06 in data set [1] (pH 6.5, modulator: ogerin). In data set [2], the surface expression score was found to be 1.76.

As for G355C, the cAMP reporter score in data set [1] (pH 5.5) stood at 0.898; in data set [1] (pH 6), 0.89; in data set [1] (pH 6, modulator: ogerin) it was 0.124; in data set [1] (pH 6.5, modulator: ogerin) it was 0.972. Also, in data set [2], the surface expression score turned out to be 0.168.

For G355F, the cAMP reporter score in data set [1] (pH 5.5) was determined as 0.889; in data set [1] (pH 6) it was 0.485; in data set [1] (pH 6, modulator: ogerin), 1.37; in data set [1] (pH 6.5, modulator: ogerin), 0.646. Further, the surface expression score in data set [2] was found to be 0.273.

In the case of G355I, the cAMP reporter score in data set [1] (pH 5.5) is 0.424; in data set [1] (pH 6), -0.276; in data set [1] (pH 6, modulator: ogerin) it was 0.085; in data set [1] (pH 6.5, modulator: ogerin), -0.073. In addition, the surface expression score in data set [2] amounted to 0.819.

Consider G355E, for which the cAMP reporter score is 0.615 in data set [1] (pH 5.5); -0.236 in data set [1] (pH 6); 0.684 in data set [1] (pH 6, modulator: ogerin); 0.453 in data set [1] (pH 6.5, modulator: ogerin). Moreover, the surface expression score in data set [2] is 0.826.

Regarding G355H, the cAMP reporter score in data set [1] (pH 5.5) amounted to 0.262; in data set [1] (pH 6) it was 0.496; in data set [1] (pH 6, modulator: ogerin), 0.203; in data set [1] (pH 6.5, modulator: ogerin) it was 0.498. In addition, the surface expression score in data set [2] was -0.036.

On to G355K, for which the cAMP reporter score in data set [1] (pH 5.5) came to 1.32; in data set [1] (pH 6) it was 0.563; in data set [1] (pH 6, modulator: ogerin), 1.01; in data set [1] (pH 6.5, modulator: ogerin), 1.62. Besides, the surface expression score in data set [2] was determined as 0.968.

As to T350_P351del, the cAMP reporter score in data set [1] (pH 5.5) was 0.092; in data set [1] (pH 6) it was -0.287; in data set [1] (pH 6, modulator: ogerin), -0.021; in data set [1] (pH 6.5, modulator: ogerin), 0.023. In data set [2], the surface expression score is -0.15.

Take Q349_T350insGSG: the cAMP reporter score in data set [1] (pH 5.5) is 0.083; in data set [1] (pH 6), -0.068; in data set [1] (pH 6, modulator: ogerin) it was 0.677; in data set [1] (pH 6.5, modulator: ogerin), 0.378. The surface expression score in data set [2] turned out to be 0.727.

With P354_G355del, the cAMP reporter score turned out to be 0.437 in data set [1] (pH 5.5); 0.922 in data set [1] (pH 6); 1.08 in data set [1] (pH 6, modulator: ogerin); 0.233 in data set [1] (pH 6.5, modulator: ogerin). Also, the surface expression score in data set [2] was 0.835.

P346_A347insG: the cAMP reporter score in data set [1] (pH 5.5) stood at 1.91; in data set [1] (pH 6, modulator: ogerin) it was 1.15; in data set [1] (pH 6.5, modulator: ogerin), 0.896. Also, in data set [2], the surface expression score worked out at 1.98.

As for F348_Q349insGS, the cAMP reporter score in data set [1] (pH 5.5) was 0.987; in data set [1] (pH 6), -0.302; in data set [1] (pH 6, modulator: ogerin) it was 0.843; in data set [1] (pH 6.5, modulator: ogerin) it was 0.667. Moreover, the surface expression score in data set [2] came to 0.698.

With P354del, the cAMP reporter score in data set [1] (pH 5.5) turned out to be 0.515. For the same variant, the surface expression score in data set [2] is 0.662.

For P346_A347insGSG, the cAMP reporter score was -0.369 in data set [1] (pH 5.5); 0.994 in data set [1] (pH 6); 0.428 in data set [1] (pH 6, modulator: ogerin); 0.866 in data set [1] (pH 6.5, modulator: ogerin). In addition, in data set [2], the surface expression score is 0.866.

For A347N, the cAMP reporter score was -1.16 in data set [1] (pH 5.5); -0.056 in data set [1] (pH 6); 0.387 in data set [1] (pH 6, modulator: ogerin); -0.431 in data set [1] (pH 6.5, modulator: ogerin).

For the variant A347W, the cAMP reporter score in data set [1] (pH 5.5) was 0.871; in data set [1] (pH 6), 0.189; in data set [1] (pH 6, modulator: ogerin), 0.841; in data set [1] (pH 6.5, modulator: ogerin), 0.433. Also, the surface expression score in data set [2] was determined as 0.132.

A347M: the cAMP reporter score in data set [1] (pH 5.5) is 2.68; in data set [1] (pH 6.5, modulator: ogerin) it was -0.75. For the same variant, the surface expression score in data set [2] is -0.387.

In the case of A347R, the cAMP reporter score in data set [1] (pH 5.5) was determined as 0.619; in data set [1] (pH 6), 1.89; in data set [1] (pH 6, modulator: ogerin) it was 0.353; in data set [1] (pH 6.5, modulator: ogerin), 1.04. In addition, the surface expression score in data set [2] stood at 0.741.

Turning to A347C, the cAMP reporter score in data set [1] (pH 5.5) is 0.751; in data set [1] (pH 6) it was -0.282; in data set [1] (pH 6, modulator: ogerin), 0.847; in data set [1] (pH 6.5, modulator: ogerin), 0.288. The surface expression score in data set [2] came to 0.943.

As to A347S, the cAMP reporter score in data set [1] (pH 5.5) is 0.654; in data set [1] (pH 6) it was 0.518; in data set [1] (pH 6, modulator: ogerin), 1.04; in data set [1] (pH 6.5, modulator: ogerin) it was 0.597. Also, the surface expression score in data set [2] was determined as 0.312.

For A347V, the cAMP reporter score was 0.45 in data set [1] (pH 5.5); 0.272 in data set [1] (pH 6); 0.291 in data set [1] (pH 6, modulator: ogerin); 0.643 in data set [1] (pH 6.5, modulator: ogerin). Moreover, the surface expression score in data set [2] came to 0.439.

As to A347G, the cAMP reporter score in data set [1] (pH 5.5) is 1.74; in data set [1] (pH 6), 0.935; in data set [1] (pH 6, modulator: ogerin), 2.14; in data set [1] (pH 6.5, modulator: ogerin), 1.78. For the same variant, in data set [2], the surface expression score turned out to be 1.57.

Consider A347F, for which the cAMP reporter score in data set [1] (pH 5.5) is -0.538; in data set [1] (pH 6), -1.08; in data set [1] (pH 6, modulator: ogerin) it was -0.233; in data set [1] (pH 6.5, modulator: ogerin), 0.155. In addition, in data set [2], the surface expression score is -0.455.

Consider A347I, for which the cAMP reporter score in data set [1] (pH 5.5) worked out at 0.221; in data set [1] (pH 6) it was 0.308; in data set [1] (pH 6, modulator: ogerin), 0.103; in data set [1] (pH 6.5, modulator: ogerin), 0.528. Besides, the surface expression score in data set [2] is 0.525.

As for A347K, the cAMP reporter score in data set [1] (pH 5.5) was -0.024; in data set [1] (pH 6, modulator: ogerin), 1.85; in data set [1] (pH 6.5, modulator: ogerin), -0.057. For the same variant, in data set [2], the surface expression score was determined as 0.898.

A347H: the cAMP reporter score is -0.03 in data set [1] (pH 5.5); -0.356 in data set [1] (pH 6); 1.48 in data set [1] (pH 6, modulator: ogerin); 0.765 in data set [1] (pH 6.5, modulator: ogerin). For the same variant, the surface expression score in data set [2] is 1.47.

In the case of A347Q, the cAMP reporter score in data set [1] (pH 5.5) was -0.16; in data set [1] (pH 6), 0.401; in data set [1] (pH 6, modulator: ogerin), -0.243; in data set [1] (pH 6.5, modulator: ogerin), -0.732. Also, the surface expression score in data set [2] is -0.485.

For A347Y, the cAMP reporter score in data set [1] (pH 5.5) is 0.056; in data set [1] (pH 6), 0.448; in data set [1] (pH 6, modulator: ogerin) it was -0.344; in data set [1] (pH 6.5, modulator: ogerin) it was 0.016. Besides, the surface expression score in data set [2] was -0.753.

A347D: the cAMP reporter score in data set [1] (pH 5.5) is -0.307; in data set [1] (pH 6), 0.025; in data set [1] (pH 6, modulator: ogerin), -0.714; in data set [1] (pH 6.5, modulator: ogerin) it was -0.63. For the same variant, the surface expression score in data set [2] is -1.16.

The values are drawn from the GPR68 mutational scans of Howard et al. (2025).
